This assay has as its target Human PSMA (Homo sapiens, UniProt Q04609). Put plainly: ELISA binding of naked anti-PSMA antibodies to coated human PSMA. As to conditions: human PSMA coated at 3 μg/ml. How it is done:
Human PSMA was coated on a 96 well plate at 3 μg/ml for at least two hours at room temperature. The plate was washed with wash buffer (0.05% Tween-20 in PBS), then blocked with blocking buffer (3% BSA in PBS) washed again using wash buffer. After which antibodies were titrated from 66.6 nM to 0.013 nM and added to the plate and incubated at room temperature for one hour, after which the plate was washed and anti-human-IgG-HRP added, the plate was incubated for a further 1 hour at room temperature, before being washed and TMB detection reagent added, the reaction was stopped by the addition of 1M HCl to the wells, after which the plate was read at 450 nm using the SpectraMax plate reader.

Chain of Human PSMA (Q04609 whole entry): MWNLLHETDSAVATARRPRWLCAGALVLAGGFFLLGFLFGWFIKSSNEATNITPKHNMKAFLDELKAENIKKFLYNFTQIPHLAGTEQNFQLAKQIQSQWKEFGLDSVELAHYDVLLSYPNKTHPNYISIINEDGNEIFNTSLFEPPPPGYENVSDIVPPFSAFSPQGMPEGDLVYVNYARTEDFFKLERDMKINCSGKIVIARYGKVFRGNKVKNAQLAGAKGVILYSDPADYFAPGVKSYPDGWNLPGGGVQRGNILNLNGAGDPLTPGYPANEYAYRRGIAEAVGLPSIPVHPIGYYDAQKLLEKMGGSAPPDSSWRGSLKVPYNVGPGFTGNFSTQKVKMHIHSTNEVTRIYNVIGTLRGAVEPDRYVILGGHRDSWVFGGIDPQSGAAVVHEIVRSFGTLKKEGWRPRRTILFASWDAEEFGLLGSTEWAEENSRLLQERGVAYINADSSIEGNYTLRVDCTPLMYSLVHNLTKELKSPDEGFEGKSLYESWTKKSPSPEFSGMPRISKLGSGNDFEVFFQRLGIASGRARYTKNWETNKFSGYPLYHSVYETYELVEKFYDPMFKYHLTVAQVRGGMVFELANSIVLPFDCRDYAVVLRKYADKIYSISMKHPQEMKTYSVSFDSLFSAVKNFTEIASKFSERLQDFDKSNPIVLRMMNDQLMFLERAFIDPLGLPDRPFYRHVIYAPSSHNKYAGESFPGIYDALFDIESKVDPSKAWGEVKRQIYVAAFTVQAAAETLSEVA

B1: Mdx 2A10: anti-PSMA antibody, U.S. Pat. No. 7,875,278; heavy and light chains SEQ ID NOs: 9 and 10 (antibody)
heavy: EVQLVQSGAEVKKPGESLKISCKGSGYSFTSNWIGWVRQMPGKGLEWMGIIYPGDSDTRYSPSFQGQVTISADKSISTAYLQWSSLKASDTAMYYCARQTGFLWSSDLWGRGTLVTVSS[human IgG1 constant region not given here]
light: AIQLTQSPSSLSASVGDRVTITCRASQDISSALAWYQQKPGKAPKLLIYDASSLESGVPSRFSGYGSGTDFTLTINSLQPEDFATYYCQQFNSYPLTFGGGTKVEIKRTVAAPSVFIFPPSDEQLKSGTASVVCLLNNFYPREAKVQWKVDNALQSGNSQESVTEQDSKDSTYSLSSTLTLSKADYEKHKVYACEVTHQGLSSPVTKSFNRGEC
As to B1, the EC50 result is “lowest (best) value”.
